In all, about 140,000 compounds went through this assay and about 240 (0.17%) were called active. The inconclusive results got no clear call from the source; some entries with a clear call stand among them for comparison. Calls follow the shape of the dose curve; as a rule, active = well fitted inhibition curve with a large enough effect; inconclusive = small, poorly fitted or top-dose-only effect; inactive = no such curve, though single readings can be large or run the other way. A potency beside an inconclusive call is a rough fit, not a confirmed value.
assay: Primary qHTS assay for inhibitors of alpha-synuclein gene (SNCA) expression; settings: HEK-293 SNCA-luciferase knock-in, luminescence, 24 h; activity change, negative = inhibition: at 57.2 µM (top of the series) unless noted; also: nearly all actives have a fitted effect of over 45% in size;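 as to activity change, negative = inhibition: plate controls were DMSO cells for no effect and cell-free wells for full effect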
Potency is read from the fitted curve at half-maximal effect; tags tell the direction and shape of the fitted curve.

Question: Which Potency does the source give for `O=c1[nH]c(N2CCOCC2)nc2c1CCN(Cc1ccc(F)c(Cl)c1)CC2` here?
Answer: Its Potency is inconclusive: 3.55 µM [inhibitor, partial curve, poor fit].

Question: Which Potency does the source give for `O=C(c1ccccn1)N1CCC(Cc2nc(-c3ccccc3)n[nH]2)C1` (configuration not stated) here?
Answer: Its Potency is inconclusive: 35.5 µM [inhibitor, single point].

Question: With `COC(=O)[C@@H]1C[C@H](NC(=O)CCCc2cccs2)CN1C` as the molecule, how does the “activity change, negative = inhibition” value read?
Answer: Its value is inactive: 7.63%.

Question: With `O=C(NCc1ccccc1)c1ccccc1OC1CN(Cc2ccncc2)C1` as the molecule, how does the “activity change, negative = inhibition” value read?
Answer: Its value is inactive: -11.6%.

Question: Which “activity change, negative = inhibition” value does the source give for `COc1ccc2[nH]c3c(c2c1)CCNC31CCN(C(=O)COc2ccc(F)cc2)CC1` here?
Answer: The value was inactive: 5.92%.

Question: Which Potency does the source give for `COc1ccccc1C(=O)N1CCC(N2C[C@H](O)C[C@H]2C(=O)NC2CCCCC2)CC1` here?
Answer: Its Potency is inconclusive: 1 µM [inhibitor, full curve, poor fit].

Question: Which Potency does the source give for `CC(=O)Nc1ccc(NC(=O)c2cc(=O)c3ccccc3o2)cc1` here?
Answer: Its Potency is inconclusive: 11.2 µM [inhibitor, partial curve].

Question: Which “activity change, negative = inhibition” value does the source give for `CC(c1ccc(-c2cc(N)ccn2)cc1)N1CCCCC1` (configuration not stated) here?
Answer: Its value is inactive: 5.77%.

Question: With `Cc1ccc(F)cc1S(=O)(=O)N1C[C@@H](C)[C@@](C)(O)C1` as the molecule, how does the Potency read?
Answer: The Potency was inconclusive: 7.08 µM [inhibitor, full curve, poor fit].

Question: Which “activity change, negative = inhibition” value does the source give for `CNC(=O)N1CCCC1c1nc(C2CN(S(=O)(=O)c3c(C)noc3C)C2)no1` (configuration not stated) here?
Answer: Its value is inactive: 16.9%.

Question: For `N#CC1(c2ccc(-c3cccc(CN4CCOCC4)c3)cc2)CCCC1`, which “activity change, negative = inhibition” value is on record?
Answer: Its value is inactive: 85.2%.

Question: With `COc1ccc(-c2nc(C(=O)NC3CC3)n3ccccc23)cc1` as the molecule, how does the “activity change, negative = inhibition” value read?
Answer: Its value is inactive: -4.82% [at 87.6 µM].

Question: For `O=C(NCCn1ccn2nc(-c3ccc(F)cc3)cc2c1=O)c1c(F)cccc1Cl`, which “activity change, negative = inhibition” value is on record?
Answer: The value was inactive: 17.9%.

Question: With `O=C(CCn1cnc2onc(-c3ccc(F)cc3)c2c1=O)Nc1ccc(F)c(Cl)c1` as the molecule, how does the Potency read?
Answer: Its Potency is inconclusive: 7.08 µM [inhibitor, single point].

Question: With `CCc1c(C)sc2c1CCN(Cc1ccccc1)C2c1ccccc1` (configuration not stated) as the molecule, how does the Potency read?
Answer: The Potency was inconclusive: 4.47 µM [inhibitor, full curve, poor fit].

Question: Which Potency does the source give for `CC(C)NC(=O)N1CCC(N2CC3CC(C2)[C@H]2CCCC(=O)N2C3)CC1` (some centres not stated) here?
Answer: Its Potency is inconclusive: 3.16 µM [inhibitor, partial curve, poor fit].

Question: With `COc1cccc(CN2CCNC(=O)C2CC(=O)NCc2ccon2)c1OC` (configuration not stated) as the molecule, how does the Potency read?
Answer: The Potency was inconclusive: 14.1 µM [inhibitor, partial curve, poor fit].

Question: With `O=C(c1cn[nH]c1)N1CCC(c2nc(CCOCC3CCOCC3)no2)C1` (configuration not stated) as the molecule, how does the Potency read?
Answer: The Potency was inconclusive: 39.8 µM [inhibitor, single point].

Question: Which “activity change, negative = inhibition” value does the source give for `COc1cccc(CN2CCCC3(Cc4ccccc4CNC3=O)C2)c1` (configuration not stated) here?
Answer: Its value is inactive: -0.941%.

Question: For `Cc1cccn2c3c(c(=O)nc12)C(c1cccc(F)c1)CC(=O)N3` (configuration not stated), which “activity change, negative = inhibition” value is on record?
Answer: The value was inactive: 36.8%.

Question: Which “activity change, negative = inhibition” value does the source give for `CC(C)c1noc(-c2cccn3c(CNC(=O)c4ccc(F)c(F)c4)nnc23)n1` here?
Answer: The value was inactive: -14.4%.

Question: With `O=C(CC1CCCC1)NCCC1CCN(C(=O)Nc2ccc(F)cc2)CC1` as the molecule, how does the Potency read?
Answer: The Potency was inconclusive: 10 µM [inhibitor, partial curve].

Question: Which Potency does the source give for `NCCCC(=O)N1CCCC2(Cc3ccccc3CN2C(=O)Cc2cccc(Cl)c2)C1` (configuration not stated) here?
Answer: The Potency was inconclusive: 39.8 µM [inhibitor, single point].

Question: With `CCc1ccc(CN(Cc2ccco2)C(=O)COc2ccccc2Cl)cc1` as the molecule, how does the Potency read?
Answer: The Potency was inconclusive: 17.8 µM [inhibitor, partial curve].

Question: With `COc1cc(C)c(Sc2cnc(NC(=O)c3ccc(CNC(C)C(C)(C)C)cc3)s2)cc1C(=O)N1CCN(C(C)=O)CC1` (configuration not stated) as the molecule, how does the Potency read?
Answer: Its Potency is inconclusive: 42.9 µM [inhibitor, single point].

Question: For `COc1cc(OC)cc(C(=O)NC2CCN(c3cc(C(F)(F)F)nc(C)n3)CC2)c1`, which “activity change, negative = inhibition” value is on record?
Answer: The value was inactive: 16.3%.

Question: For `COc1cccc(NC(=O)CCc2nc(-c3ccc(C(C)(C)C)cc3)no2)c1`, which Potency is on record?
Answer: The Potency was inconclusive: 0.316 µM [inhibitor, full curve, poor fit].

Question: For `Cc1ccc(S(=O)(=O)NC[C@H]2O[C@@H](CO)[C@@H](O)[C@H]2N2CCN(c3ccc(F)cc3)CC2)cc1`, which “activity change, negative = inhibition” value is on record?
Answer: The value was inactive: -22.4%.

Question: For `C[C@@H]1CN(C2CCN(Cc3cnn(C)c3C3CC3)CC2)C[C@H](C)O1`, which Potency is on record?
Answer: The Potency was inconclusive: 39.8 µM [inhibitor, single point].

Question: With `CC(C)n1nc(-c2ccc3oc(N)nc3c2)c2c(N)ncnc21` as the molecule, how does the Potency read?
Answer: Its Potency is inconclusive: 7.64 µM [inhibitor, single point].

Question: Which Potency does the source give for `Cc1nc(-c2cccnc2)ncc1C(=O)N1CC[C@](C)(O)C(C)(C)C1` here?
Answer: Its Potency is inconclusive: 12.6 µM [inhibitor, partial curve].

Question: For `COc1ccccc1CNC(=O)c1ccc(-c2nc(CS(=O)c3ccc(C)cc3)c(C)o2)cc1` (configuration not stated), which Potency is on record?
Answer: Its Potency is inconclusive: 39.8 µM [inhibitor, partial curve, poor fit].

Question: For `CN1C[C@@H](NC(=O)Nc2ccc(C(F)(F)F)cc2)C[C@H]1c1nc(-c2ccc(Cl)cc2)no1`, which Potency is on record?
Answer: Its Potency is inconclusive: 2 µM [inhibitor, full curve].

Question: With `Cc1ccc(-c2nc3cnccn3c2NCCC(=O)NCc2ccco2)cc1` as the molecule, how does the Potency read?
Answer: Its Potency is inconclusive: 7.94 µM [inhibitor, full curve, poor fit].

Question: For `COc1ccccc1N1CCN(C(=O)C[C@@H]2O[C@H](CNC(=O)NC(C)C)[C@@H](O)[C@H]2O)CC1`, which Potency is on record?
Answer: The Potency was inconclusive: 15.8 µM [inhibitor, partial curve, poor fit].

Question: With `Cc1cccc(-c2nc(SCCCOc3cc(C)c(Cl)c(C)c3)n3[nH]c(=O)cc3n2)c1` as the molecule, how does the Potency read?
Answer: The Potency was inconclusive: 3.16 µM [inhibitor, full curve, poor fit].

Question: Which Potency does the source give for `O=C(NCCc1noc(-c2ccncc2)n1)C1CC1` here?
Answer: Its Potency is inconclusive: 2.51 µM [inhibitor, partial curve, poor fit].

Question: For `COCCn1c(=O)c(C(=O)N2CCC(c3ccccc3)CC2)nc2cccnc21`, which “activity change, negative = inhibition” value is on record?
Answer: Its value is inactive: 6.48%.

Question: For `CS(=O)(=O)c1ncc(Cl)c(C(=O)N2CCN(c3cccc(Cl)c3)CC2)n1`, which Potency is on record?
Answer: The Potency was inconclusive: 7.08 µM [inhibitor, full curve, poor fit].

Question: For `O=c1ncn(CC2CC2)c2ccc(N3CCC(c4ccccc4)CC3)nc12`, which “activity change, negative = inhibition” value is on record?
Answer: The value was inactive: 10.1% [at 87.6 µM].

Question: For `Cc1nc2cc(-c3ccc(Cl)cc3)nn2c(C)c1CCC(=O)N1CCN(c2ccccc2)CC1`, which Potency is on record?
Answer: The Potency was inconclusive: 4.47 µM [inhibitor, partial curve, poor fit].

Question: For `CCOc1ccc(-c2cc3c(=O)n(CCNC(=O)C4(c5ccccc5)CC4)ccn3n2)cc1`, which “activity change, negative = inhibition” value is on record?
Answer: The value was inactive: -4.01%.

Source: PubChem BioAssay AID1671194 (National Center for Advancing Translational Sciences (NCATS), 2021)
